Source: ChEMBL document CHEMBL4888484, “Replenishing the malaria drug discovery pipeline: Screening and hit evaluation of the MMV Hit Generation Library 1 (HGL1) against asexual blood stage Plasmodium falciparum ,using a nano luciferase reporter read-out” (2022)
Among all 150,000 compounds or so, about 540 (0.36%) showed an effect of 50% or more. The list shows a part of the results.

What follows are compounds tested on Plasmodium falciparum (assay: Primary screen in NF54 nanoGlo assay, in single point, at 2uM, 72h; a lower Z score goes with more inhibition). Details: timepoint 72 hour.
Type: functional, Erythrocyte
`COc1ccc(-n2nc(C)c3c2NC(=O)C[C@@H]3c2cccc3ccccc23)cc1` was tested, and the “% Inhibition” value was -15% and the Z score was 2.88. For `Cc1ccn2c(NCc3cccc(C#N)c3)nnc2c1`, the “% Inhibition” value was 2% and the Z score was -0.24. In the case of `NCC1([C@@H]2CCCCN2Cc2noc(-c3ccccc3)n2)CCC1`, the “% Inhibition” value is reported as -6% and the Z score is reported as 1.12. With `CN(C)S(=O)(=O)N(Cc1ccco1)Cc1nn(C)c2c1CCC2` the “% Inhibition” value was 9% and the Z score was -1.13. For `O=C(CN1CCc2[nH]c3c(F)c(Cl)ccc3c(=O)c2C1)Nc1ccc(F)c(Cl)c1`, the “% Inhibition” value was 8% and the Z score was -1.47. In the case of `O=c1[nH]cnc2c1nc(N1CCCCC1)n2C1OC(CO)C(O)C1O` (stereo not drawn), the “% Inhibition” value is reported as 33% and the Z score is reported as -0.92. With `Cc1c(Cl)cnc(NC(=O)COC(=O)C2CCCC2)c1Cl` the “% Inhibition” value was -6% and the Z score was 1.03. `OC[C@H](CNc1nc(-c2ccccc2)nc2ccccc12)Cc1ccco1` was tested, and the “% Inhibition” value was -16% and the Z score was 1.57. With `C[C@H](O)C1CCN(C(=O)Nc2cccc3ccn(C)c23)CC1` the “% Inhibition” value was -10% and the Z score was 1.97. In the case of `CC(C)N1C(=O)NC(C)(C2CCCN(CCc3cnn(C)c3)C2)C1=O` (stereo not drawn), the “% Inhibition” value is reported as -14% and the Z score is reported as 1.38. For `COc1ccc(CC(=O)NCCn2cnc3ccccc32)c(Cl)c1`, the “% Inhibition” value was 7% and the Z score was -1.17. With `O=C(NC[C@@H](CO)CC1CCCC1)C1CCCC1` the “% Inhibition” value was -3% and the Z score was 0.41. In the case of `O=C(NCc1ccccn1)c1cc2n(n1)CCN(Cc1ccc(Cl)c(Cl)c1)C2=O`, the “% Inhibition” value is reported as 8% and the Z score is reported as -0.78. In the case of `COc1ccnc(CNC(=O)Cc2ccccn2)c1`, the “% Inhibition” value is reported as 1% and the Z score is reported as -0.21. For `CCOC(=O)CCC(=O)Nc1cccc(-c2cnc3n2CCC3)c1`, the “% Inhibition” value was -6% and the Z score was 0.96. For `Cc1noc(CO[C@H]2CCC23CCN(C(=O)c2ccccc2F)CC3)n1`, the “% Inhibition” value was -2% and the Z score was 0.25. `CN1CCCN(CC(=O)NC(Cc2ccccc2)[C@H]2C[C@H](O)C2)CC1` (stereo partly drawn) was tested, and the “% Inhibition” value was -4% and the Z score was 0.9. `CCCn1nccc1S(=O)(=O)NCC1(N(C)C)CCCCC1` was tested, and the “% Inhibition” value was 3% and the Z score was -0.55. For `Cc1nccn1-c1cc(CNS(=O)(=O)N2CCCCC2)ccn1`, the “% Inhibition” value was -1% and the Z score was 0.16. `CO[C@H]1[C@H](NC(=O)Cc2cccs2)c2ccccc2C12CCN(Cc1cc(F)ccc1F)CC2` was tested, and the “% Inhibition” value was 5% and the Z score was -0.71. In the case of `CCC(COc1ccccc1)NC(=O)CC1CNCCO1` (stereo not drawn), the “% Inhibition” value is reported as -5% and the Z score is reported as 0.49. In the case of `O=C(Nc1ccc2c(c1)CCCC2)[C@@H]1CCCO1`, the “% Inhibition” value is reported as -4% and the Z score is reported as 0.47. For `COc1ccc(C)cc1S(=O)(=O)N1CCc2nc(NC(=O)c3cc(C)on3)sc2C1`, the “% Inhibition” value was -7% and the Z score was 0.98. For `COc1ccc(S(=O)(=O)N(CC(=O)N2CCNCC2)C2CCCC2)cc1`, the “% Inhibition” value was 3% and the Z score was -0.57.
